Drawing on article PMC12820563, “FoxP3 forms a head-to-head dimer in vivo and stabilizes its multimerization on adjacent microsatellites”, this text covers binding signal for 31 sequences.

This is one part of the list.

The target of this experiment is T1, MBP-FoxP1dN (Mus musculus, UniProt P58462 326-579).
T1 sequence: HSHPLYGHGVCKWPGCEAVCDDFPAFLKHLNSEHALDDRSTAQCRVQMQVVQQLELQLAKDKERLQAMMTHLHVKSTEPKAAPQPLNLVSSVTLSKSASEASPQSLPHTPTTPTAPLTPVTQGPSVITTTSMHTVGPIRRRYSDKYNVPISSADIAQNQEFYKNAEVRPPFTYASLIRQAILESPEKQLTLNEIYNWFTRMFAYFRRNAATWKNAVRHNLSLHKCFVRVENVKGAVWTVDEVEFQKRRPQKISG
Briefly: PD-seq (MBP pull-down with sequencing); 20 mM Tris-HCl pH 7.5, 100 mM NaCl, 1.5 mM MgCl2, 0.4 uM protein, 0.1 uM dsDNA library, 30 min, room temperature, amylose pull-down; high values mean tight binding. To be noted: protein: recombinant; tags: His6-MBP; chain copies: 2; dsDNA, one strand shown. The method, boiled down:
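Mouse FoxP3 or FoxP1 fragment lacking the N-terminus, His6-MBP-tagged and expressed in E. coli, was incubated at 0.4 µM with 0.1 µM Klenow-filled degenerate double-stranded DNA library for 30 min at room temperature in Tris pH 7.5 buffer with NaCl and MgCl2. Complexes captured on amylose resin were washed three times and their DNA sequenced on Illumina. Binding is reads-per-million enrichment of pull-down over input, replicates pooled.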
Turning to “GATGATTGTTCTCCCAGCTGATGAATTATTTTCTTCGAGTAAACAAATTTTCCTAATCTTTCTGTTCAAGCGCCATCTAC”, the binding signal was 1.5 RPM ratio (pull-down/input).

In the case of “GATGATTGTTCTCCCAGCTGATGAATTAAGCAAGTCGAGTAAACAAATTTTCCTAATCTTTCTGTTCAAGCGCCATCTAC”, the binding signal is 0.946 RPM ratio (pull-down/input).

In the case of “GATGATTGTTCTCCCAGCTGATGAATTAACTGCGTCGAGTAAACAAATTTTCCTAATCTTTCTGTTCAAGCGCCATCTAC”, the binding signal is 1.05 RPM ratio (pull-down/input). Consider “GATGATTGTTCTCCCAGCTGATGAATTCTCGTGATCGAGTAAACAAATTTTCCTAATCTTTCTGTTCAAGCGCCATCTAC”, for which the binding signal is 0.932 RPM ratio (pull-down/input). In the case of “GATGATTGTTCTCCCAGCTGATGAATTTGTCATGTCGAGTAAACAAATTTTCCTAATCTTTCTGTTCAAGCGCCATCTAC” it was 1.05 RPM ratio (pull-down/input); in that of “GATGATTGTTCTCCCAGCTGATGAATTAGCAGAGTCGAGTAAACAAATTTTCCTAATCTTTCTGTTCAAGCGCCATCTAC”, 0.835 RPM ratio (pull-down/input). In the case of “GATGATTGTTCTCCCAGCTGATGAATTCTGGCCGTCGAGTAAACAAATTTTCCTAATCTTTCTGTTCAAGCGCCATCTAC”, the binding signal is 0.73 RPM ratio (pull-down/input). In the case of “GATGATTGTTCTCCCAGCTGATGAATTAAGCTCCTCGAGTAAACAAATTTTCCTAATCTTTCTGTTCAAGCGCCATCTAC” it was 0.777 RPM ratio (pull-down/input); in that of “GATGATTGTTCTCCCAGCTGATGAATTAGCACTTTCGAGTAAACAAATTTTCCTAATCTTTCTGTTCAAGCGCCATCTAC”, 0.931 RPM ratio (pull-down/input). For the sequence “GATGATTGTTCTCCCAGCTGATGAATTCACAGTGTCGAGTAAACAAATTTTCCTAATCTTTCTGTTCAAGCGCCATCTAC”, the binding signal is 0.886 RPM ratio (pull-down/input). For “GATGATTGTTCTCCCAGCTGATGAATTAAGACGCTCGAGTAAACAAATTTTCCTAATCTTTCTGTTCAAGCGCCATCTAC”, the binding signal is 0.99 RPM ratio (pull-down/input). Under “GATGATTGTTCTCCCAGCTGATGAATTCTGTCGTTCGAGTAAACAAATTTTCCTAATCTTTCTGTTCAAGCGCCATCTAC” stands 0.94 RPM ratio (pull-down/input). Turning to “GATGATTGTTCTCCCAGCTGATGAATTGGATCATTCGAGTAAACAAATTTTCCTAATCTTTCTGTTCAAGCGCCATCTAC”, the binding signal is 0.943 RPM ratio (pull-down/input).

Regarding “GATGATTGTTCTCCCAGCTGATGAATTAATACATTCGAGTAAACAAATTTTCCTAATCTTTCTGTTCAAGCGCCATCTAC”, the binding signal is 1.18 RPM ratio (pull-down/input).

Take “GATGATTGTTCTCCCAGCTGATGAATTCGTCTGGTCGAGTAAACAAATTTTCCTAATCTTTCTGTTCAAGCGCCATCTAC”: the binding signal was 0.807 RPM ratio (pull-down/input). In the case of “GATGATTGTTCTCCCAGCTGATGAATTTTTGATCTCGAGTAAACAAATTTTCCTAATCTTTCTGTTCAAGCGCCATCTAC”, the binding signal is 0.982 RPM ratio (pull-down/input). Regarding “GATGATTGTTCTCCCAGCTGATGAATTATACCTTTCGAGTAAACAAATTTTCCTAATCTTTCTGTTCAAGCGCCATCTAC”, the binding signal is 1.01 RPM ratio (pull-down/input). For the sequence “GATGATTGTTCTCCCAGCTGATGAATTCGGAGATTCGAGTAAACAAATTTTCCTAATCTTTCTGTTCAAGCGCCATCTAC”, the binding signal is 0.87 RPM ratio (pull-down/input).

As for “GATGATTGTTCTCCCAGCTGATGAATTTCGGTCATCGAGTAAACAAATTTTCCTAATCTTTCTGTTCAAGCGCCATCTAC”, the binding signal is 0.881 RPM ratio (pull-down/input). Under “GATGATTGTTCTCCCAGCTGATGAATTCTCGACCTCGAGTAAACAAATTTTCCTAATCTTTCTGTTCAAGCGCCATCTAC” stands 0.757 RPM ratio (pull-down/input); under “GATGATTGTTCTCCCAGCTGATGAATTGATTTTCTCGAGTAAACAAATTTTCCTAATCTTTCTGTTCAAGCGCCATCTAC”, 1.26 RPM ratio (pull-down/input). Turning to “GATGATTGTTCTCCCAGCTGATGAATTATCCTAATCGAGTAAACAAATTTTCCTAATCTTTCTGTTCAAGCGCCATCTAC”, the binding signal was 1.01 RPM ratio (pull-down/input).

As to “GATGATTGTTCTCCCAGCTGATGAATTCAGTGCCTCGAGTAAACAAATTTTCCTAATCTTTCTGTTCAAGCGCCATCTAC”, the binding signal is 0.912 RPM ratio (pull-down/input). Under “GATGATTGTTCTCCCAGCTGATGAATTGCCGACCTCGAGTAAACAAATTTTCCTAATCTTTCTGTTCAAGCGCCATCTAC” stands 0.815 RPM ratio (pull-down/input). Under “GATGATTGTTCTCCCAGCTGATGAATTAGCAACTTCGAGTAAACAAATTTTCCTAATCTTTCTGTTCAAGCGCCATCTAC” stands 1.12 RPM ratio (pull-down/input). “GATGATTGTTCTCCCAGCTGATGAATTACCCCTGTCGAGTAAACAAATTTTCCTAATCTTTCTGTTCAAGCGCCATCTAC”: the binding signal was 0.888 RPM ratio (pull-down/input). As for “GATGATTGTTCTCCCAGCTGATGAATTAGAACAGTCGAGTAAACAAATTTTCCTAATCTTTCTGTTCAAGCGCCATCTAC”, the binding signal was 0.963 RPM ratio (pull-down/input). On to “GATGATTGTTCTCCCAGCTGATGAATTCGCGCTATCGAGTAAACAAATTTTCCTAATCTTTCTGTTCAAGCGCCATCTAC”, for which the binding signal is 0.866 RPM ratio (pull-down/input). Take “GATGATTGTTCTCCCAGCTGATGAATTCCCAAGGTCGAGTAAACAAATTTTCCTAATCTTTCTGTTCAAGCGCCATCTAC”: the binding signal is 0.722 RPM ratio (pull-down/input). Consider “GATGATTGTTCTCCCAGCTGATGAATTAGATGACTCGAGTAAACAAATTTTCCTAATCTTTCTGTTCAAGCGCCATCTAC”, for which the binding signal is 1.03 RPM ratio (pull-down/input). For the sequence “GATGATTGTTCTCCCAGCTGATGAATTCTTCATGTCGAGTAAACAAATTTTCCTAATCTTTCTGTTCAAGCGCCATCTAC”, the binding signal was 0.907 RPM ratio (pull-down/input).
